PubChem BioAssay (NCATS)
Inconclusive results, whose numbers are uncertain, are shown with a selection of clear calls. No potency is given beside an inconclusive call; the fits are too rough. Active and inactive are the calls of the source. Calls follow the shape of the dose curve; as a rule, active = well fitted activation curve with a large enough effect; inconclusive = small, poorly fitted or top-dose-only effect; inactive = flat fitted curve, though single readings scatter.

Assay: Primary redox qHTS assay for identification of artifact compounds. (AID 1845223)
Conditions: Amplex Red/HRP redox cycling with DTT, fluorescence; series mostly up to 53.8 µM
Excerpt: PI: Alexander Tropsha Ph.D.
UNC Eshelman School of Pharmacy
University of North Carolina, Chapel Hill, North Carolina
Hits from high-throughput screening (HTS) of chemical libraries are often false positives due to their interference with the assay detection technology. In response to this problem, we generated the largest publicly available library of chemical liabilities and developed a free webtool to predict HTS artifacts, both of which are described herein. More specifically, we generated, curated, and integrated HTS datasets for thiol reactivity, redox activity, and luciferase (firefly and nano) activity. Using these curated datasets, we developed and validated several Quantitative Structure-Interference Relationship (QSIR) models to predict nuisance behavior. […] These models were employed for virtual profiling of the National Center for Advancing Translational Science's (NCATS) in-house library, and 256 compounds for each assay were selected for the experimental validation of nuisance behavior. The BA for these external predictions ranged from 58 to 78% for compounds within the applicability domains of the models. […] The models developed in this study, along with aggregation models previously developed by our group (SCAM Detective) were implemented in "Liability Predictor," an online tool which may be used as part of chemical library design or for triaging HTS hits. Both the models and the curated datasets are publicly available at https://liability.mml.unc.edu/.
SEQUENCE No. (e.g., 1, 2, 3, etc.); […] (e.g., Cells, Incubation, Reagent, etc.); VALUE; DESCRIPTION.
1; Reagent; 3 uL; Amplex Red and HRP mixture.
2; Compounds and control; 16 nL; Kalypsis pin tool (Wako USA) equipped with a 1536-well pin head. […]
6; Detection; Fluorescence, ViewLux microplate reader, 525 nm excitation, 598 nm emission.
NOTES (numbers refer to Sequence numbers above)
1. 3 uL of a mixture containing Amplex Red (25 uM final concentration) and horseradish peroxidase (HRP; 250 mU/mL final concentration) in assay buffer (HBSS) was dispensed into all wells of a 1536-well assay plate (solid-bottom black plate; Greiner Bio One, Monroe, NC).
2. A Wako Pin-tool (Wako Automation, Richmond, VA) was used to transfer 16 nL of compounds (consisting of 7-plates in qHTS format, final concentration range 18.3 nM to 114 uM) or control DA3003 (final concentration range 1.22 nM to 40 uM).
3. 15 min. incubation at room temperature protected from light.
4. 1 uL of DTT (prepared fresh; final concentration 250 uM) was dispensed for a final assay volume of 4 uL.
5. Plates were centrifuged (121xg, 15 seconds) and incubated for 30 minutes at room temperature protected from light.
6. Samples were read for fluorescence (Ex/Em = 525(20)/598(25) nm) on a ViewLux CCD imager (PerkinElmer). Data were normalized to DMSO (0% activity) and DA3003 (10 uM final concentration; 100% activity) and the resulting percent inhibition data were fitted to a 4-parameter Hill equation using NCATS in-house software.
Potency is read from the fitted curve at half-maximal effect; tags tell the direction and shape of the fitted curve.

SMILES | Potency | redox activity (% of DA3003)
Fc1cc(-c2cccc3ncc(-c4cnn(C5CCNCC5)c4)nc23)cc(F)c1CN1CCOCC1 | inconclusive [activator, full curve, poor fit] | 
N#Cc1c(O)c2c(-c3ccc(-c4ccccc4O)cc3)csc2[nH]c1=O | inconclusive [activator, single point] | 
Cc1ccccc1C(=O)Nc1ccc(C(=O)N2CCCC(O)c3cc(Cl)ccc32)c(C)c1 (centres undefined) | inactive | 
CCN(CC)CCCC(C)Nc1ccnc2cc(Cl)ccc12 (centres undefined) |  | inactive: -9.33% [at 11.5 µM]
O=C1NC(=O)C(c2cnc3ccccn23)=C1c1cn2c3c(cccc13)CN(C(=O)N1CCOCC1)CC2 | inconclusive [activator, partial curve] | 
CC(=O)OCC(=O)[C@@]1(O)[C@H](C)C[C@H]2[C@@H]3CCC4=CC(=O)C=C[C@]4(C)[C@@]3(F)[C@@H](O)C[C@@]21C | inconclusive [activator, partial curve] | 
COc1ccc(C[C@H](N)C(=O)N[C@H]2[C@@H](O)[C@H](n3cnc4c(N(C)C)ncnc43)O[C@@H]2CO)cc1 | inactive | 
COc1cc2c(Nc3ccc(Br)cc3F)ncnc2cc1OCC1CCN(C)CC1 | inconclusive [activator, partial curve, poor fit] | 
CC[C@]1(O)C[C@@H]2CN(CCc3c([nH]c4ccccc34)[C@@](C(=O)OC)(c3cc4c(cc3OC)N(C)[C@H]3[C@@](O)(C(=O)OC)[C@H](OC(C)=O)[C@]5(CC)C=CCN6CC[C@]43[C@@H]65)C2)C1 | inconclusive [activator, partial curve] | 
O=C(CCCCCCNC(=O)c1cnc(N(c2ccccc2)c2ccccc2)nc1)NO | inconclusive [activator, partial curve, poor fit] | 
COC(=O)[C@H]1[C@H]2C[C@@H]3c4[nH]c5cc(OC)ccc5c4CCN3C[C@H]2C[C@@H](OC(=O)/C=C/c2cc(OC)c(OC)c(OC)c2)[C@@H]1OC | inconclusive [activator, partial curve, poor fit] | 
COC(=O)c1ccc2c(C(=Nc3ccc(N(C)C(=O)CN4CCN(C)CC4)cc3)c3ccccc3)c(O)[nH]c2c1 | inconclusive [activator, partial curve, poor fit] | 
COc1cc2ncnc(Nc3cccc(Cl)c3)c2cc1OC | inconclusive [activator, partial curve, poor fit] | 
O=C(Nc1cccc(C(F)(F)F)c1)Nc1cc(S(=O)(=O)NC2CC2)ccc1-c1ccsc1 | inactive | 
COc1cc2c(Oc3ccc4[nH]c(C)cc4c3F)ncnc2cc1OCCCN1CCCC1 | inconclusive [activator, full curve] | 
COC(=O)[C@@H]1[C@H]2C[C@H]3c4[nH]c5ccccc5c4CCN3C[C@@H]2CC[C@@H]1O | inactive | 
CCN(CC)CCNC(=O)c1ccc(N)cc1 | inactive | 
CNC(=O)c1ccc(N2C(=S)N(c3cnc(C#N)c(C(F)(F)F)c3)C(=O)C23CCC3)cc1F | inactive | 
O=C(c1ccc(C(=O)N2CCC(N3CCCC3)CC2)c(Nc2ccccc2)c1)N1CCC(N2CCCC2)CC1 | inconclusive [activator, partial curve, poor fit] | 
